# The supplement of paper PMC11417369
# Some of the results follow.
# System: PfSIP2 AP2 domain 1 (GST-tagged)
# Experiment: gcPBM binding intensity (ln(normalized median fluorescence intensity)); higher = stronger DNA binding
# Method in brief: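 The highest Masliner-normalised natural-log median intensity across replicate spots of either probe orientation is reported as binding intensity. GST-tagged P. falciparum DNA-binding domains expressed in E. coli were applied for 1 h to an Agilent 4 × 180k array of primer-extended double-stranded 36-bp intergenic genomic probes plus negative controls, and bound protein was detected with Alexa488 anti-GST antibody and scanned at 488 nm.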
row,Sequence,gcPBM binding intensity (ln)
1,TGCTTAATTTACGTGGGTACATACACCTCATATATT [XGTACX_site3093],7.29
2,TTAATACATATATATATATTATATATATATATATAT [TGCATGCA_negctrl_site177],9.12
3,ATTATTTTAATTTTAATTTTTTTTTTTTTTTGTTTT [CACACA_negctrl_site1063],6.62
4,TATTTTTCCATAAAAATTTATATAGAAACAAATAAT [GTGCAC_negctrl_site103],7.11
5,CCCTTTTATTAAAATTCACACACATAAATTTTTATA [CACACA_site8611],7.28
6,TTACCGTAAAAATTTTGTACATAAAATAATATATAA [XGTACX_site532],7.23
7,CACATACATATATATACACACAAATATATATACACA [CACACA_site8164],7.25
8,GATATAAAATATTGGTGTACTTTTTTTTTTTTTTTT [XGTACX_site7174],7.74
9,GTATGTGTGTCAAGTCGTACTTACCTTTAAATTTTT [XGTACX_site2507],7.18
10,ACCATGAAAATATTATGTACATATGTATTATATATA [XGTACX_site408],7.18
11,GAGTGAGCTAATAAAAGTACGTAATAAACAAACGCA [XGTACX_site131],6.96
12,ATAGCTGTATTTAATACACACAAAACTTTCATTCCA [CACACA_site5868],6.91
13,TTTTTTTGTTTTGTTTTTTTTTTTTTTTTTTTTTTG [CACACA_negctrl_site570],6.76
14,TTTTTATATTTTTGCACACATTCTTTACTCTTCAAA [CACACA_site2210],7.57
15,TATATATATGGACACACACACATATAAATAAATAAA [CACACA_site4406],7.46
16,TTAAAAAAAAAACACACACACATACACATATATATA [CACACA_site3299],7.45
17,TTTTTTTTTTTTTTTTTTTCTATTTTACTGTTTCGT [CACACA_negctrl_site850],7.09
18,TGTGAAGTACCGAATGTGCACTGTGTGTGTTCTTTT [GTGCAC_site9613],10.1
19,ATAATTAATAAATAATGTACATATATATTATATTTT [XGTACX_site8546],6.93

row,Sequence,gcPBM binding intensity (ln)
1,TATAATATGAACAGTACACACAAAATAAATTCGTAT [CACACA_site3586],6.89
2,ATTCAAAATAATAGAATTGTTAAAGTTGTAAATTGA [CACACA_negctrl_site727],6.83
3,CTCAAACAATATTATATAATAAAGTACATATATATT [CACACA_negctrl_site446],7.13
4,AAAAATAAATATACATGTACTTAAAATAATCGAATA [XGTACX_site8432],7.01
5,TATATTTTTATATTTTGTACATATAGTAAATATAAA [XGTACX_site4768],7.01
6,ACGTATCAAAAAATTTGTACATATATATATATATAT [XGTACX_site1024],9.36
7,GAACAGAAAAAGAATAGTACATATATATATATATAT [XGTACX_site3700],9.16
8,AAAAATATATAAAGAAAAAGAATATAATATAAAATA [GTGCAC_negctrl_site208],6.91
9,ATTGTAGAATTTAATAGTACTCACGAATAAAATAAA [XGTACX_site6280],7.1
10,AAAAAAAAAGTATTATGTACATAAAAATAAAAAAAT [XGTACX_site4166],7.18
11,GTTTATGTTAAACCATGTACTTAATATTTTATTCTT [XGTACX_site3761],7.03
12,TATGATTCATAATAGTGTACGTAAAAATTGACTAGA [XGTACX_site5376],7.1
13,TATTAAAATATGTCAGTTCTTAAAAAGTTGATGAGT [GTGCAC_negctrl_site77],7.17
14,TATCGTTATATAATATGTACATATAAAATTTAAATT [XGTACX_site1887],7.31
15,AAAATGTATATATAAACATGCACACGTGGTTGTATA [TGCATGCA_site847],7.47
16,TCTTAAATTTCTTTATGTACATAATTAATATATTTA [XGTACX_site4456],6.95
17,TATATATTATGACCACCACACACCTATACGCATAAC [CACACA_site2447],7.27
18,ATGATAGTATGTATGAGTACGAAAAAAAAAAATTAA [XGTACX_site32],6.99
19,TGTGGGAATAACCACACACACACACCCATATATATA [CACACA_site5876],7.35

row,Sequence,gcPBM binding intensity (ln)
1,ATATATATATATATTGTACACACATTTATGCATATA [CACACA_site9055],9.1
2,AAATGCAAATGATGATGTACATACAAAAATTAAATT [XGTACX_site5323],7.15
3,ATATATATATATATATGTACATATCACTTTAAATAT [XGTACX_site3859],9.27
4,TTTTCTTAAAAAATCAAACACACATATATATATACA [CACACA_site2297],7.12
5,AATCTAATGTAATGCATACACACAACTATCCATCAA [CACACA_site535],6.9
6,AATATACGAAATTGTGCACACATATATTTATGTATG [CACACA_site1510],8.69
7,TAAAATGAAGGAATATGTACATAAATAAACATATAT [XGTACX_site6266],6.98
8,CATATATGATATATTAGTACATATATATATATATAT [XGTACX_site1574],9.76
9,CGATATAAAGATATTAGTACATATGCATGCTTGTCT [XGTACX_site8629],6.69
10,AAAAATAAAGTAAAAGCATGCTAGTATATGGAAAAT [TGCATGCA_site486],6.93
11,TTGAAATTAAATGACATACACACTATATTATATATT [CACACA_site3135],6.83
12,AGGTATATATATTTATGTACTTAAAATGAGAAAATA [XGTACX_site8337],7.09
13,CATATACGCAAACACACACACATATATATATATATA [CACACA_site501],9.58
14,TATAATAATATTTATTGTACAATTAGGTTAATTCAT [XGTACX_site1986],6.95
15,GCATTTTAATAATTATGTACATATATTATTCCTGGT [XGTACX_site3664],7.28
16,TTCCATCAAAAAATGGGTACACATTATAGAAATATT [XGTACX_site8482],7.18
17,AAAACATACAGATATACACACATATATATATATATA [CACACA_site5091],9.01
18,ATATTTAAACGATGGTGTACATATATTACAAGTTGT [XGTACX_site1743],7.46
